Data: patent US8993562B2, “Imidazo[1,2-b]pyridazines, processes, uses, intermediates and compositions” (Ferrer Internacional, S.A., priority 2006, dated 2015)
At least one structure is not confirmed: it was looked up by name or label, or the drawing left a doubt.

Key:
GABAA receptor = biological target: T1, GABAA receptor; assay: Comparative assay: IC50 values estimated from Cheng-Prusoff equation; assay type: binding, rat; settings: compounds of the invention; estimated from Ki by Cheng-Prusoff equation, radioligand 1 nM
T1 construct: IC50; other: compounds of the invention; estimated from Ki by Cheng-Prusoff equation, radioligand 1 nM
Protocol: All these compounds have in common that at 3-position, the imidazo[1,2-b]pyradizine ring have an acetamide. The rest of compounds disclosed in WO89/01333 are not structurally so related with the compounds of the present invention.
The IC50 values were estimated from Cheng-Prusoff equation (Cheng Y. C. and Prusoff W. H.; Biochem. Pharmacol. 22, 3099-3108, 1973)
[formula] where, Ki is determined for each one of the compounds of the invention as described above (section (a)). [RL*]: radiolabeled ligand concentration (1 nM). Kd: affinity constant (cerebellum 1.34 nM/spinal cord 1.19 nM)

α1-GABAA receptor = assay: Ligand-binding assay, radiolabeled flumazenil competition, cerebellum membranes; settings: rat cerebellum membranes, radiolabeled flumazenil 1 nM
Protocol: (§1) a) Ligand-binding Assays. Determination of the Affinity of Test Compounds for α1- and α2-GABAA Receptor
(§2) Male Sprague-Dawley rats weighing 200-250 g at the time of experiment were used. After decapitation of the animal, the cerebellum (tissue that mostly contains α1-GABAA receptor) and spinal cord (tissue that mostly contains α2-GABAA receptor) were removed. The membranes were prepared according to the method by J. Lameh et al. (Prog. Neuro-Psychopharmacol. Biol. Psychiatry, 24, 979-991, 2000) and H. Noguchi et al. (Eur J Pharm, 434, 21-28, 2002) with slight modifications. Once the tissues weighed, they were suspended in 50 mM Tris.HCl (pH 7.4), 1:40 (v/v), or sucrose 0.32 M in the case of spinal cord, homogenized and then centrifuged at 20000 g for 10 minutes at 7° C. The resulting pellet was resuspended under the same conditions and centrifuged again. The pellet was finally resuspended on a minimum volume and kept at −80° C. overnight. A slight modification was used in the case of spinal cord at the first centrifugation step. Centrifugation speed was at 1000 g and the supernatant was collected instead of discarded as in cerebellum. Then, supernatant was centrifuged at 20000 g and resuspended twice more under the same conditions described above for cerebellum. On the next day, the process was repeated until the final pellet was resuspended at a ratio of 1:10 (v/v) in the case of cerebellum and at a ratio of 1:5 (v/v) in the case of spinal cord.
(§3) Affinity was determined by competitive tests using radiolabeled flumazenil as ligand. The tests were performed according to the methods described by S. Arbilla et al. (Eur. J. Pharmacol., 130, 257-263, 1986); and Y. Wu et al. (Eur. J. Pharmacol., 278, 125-132, 1995) using 96-well microtiter plates. The membranes containing the study receptors, flumazenil (radiolabeling at a final concentration of 1 nM) and ascending concentrations of test compounds (in a total volume of 230 μl in 50 mM [pH 7.4] Tris.HCl buffer) were incubated. Simultaneously, the membranes were only incubated with the radiolabeled flumazenil (total binding, 100%) and in the presence of an elevated concentration of unradiolabeled flumazenil (non-specific binding, % estimation of radiolabeled ligand). The reactions started on adding the radiolabeled ligand followed by incubation for 60 minutes at 4° C. At the end of the incubation period, 200 μl of reaction were transferred to a multiscreen plate (Millipore) and filtered using a vacuum manifold and then washed three times with cold test buffer. The multiscreen plates were equipped with a GF/B filter that retained the membranes containing the receptors and the radiolabeled ligand which had been bound to the receptors. After washing, the plates were left till dry. Once dried, scintillation liquid was added and left under stirring overnight. The next day the plates were counted using a Perkin-Elmer Microbeta scintillation counter.
(§4) For analysis of the results the percentage of specific binding for every concentration of test compound was calculated as follows: specific binding−(X−N/T−N)×100 where, X: amount of bound ligand for every concentration of compound. T: total binding, maximum amount bound to the radiolabeled ligand. N: non-specific binding, amount of radiolabeled ligand bound in a non-specific way irrespective of the receptor used.
(§5) Every concentrations of compound were tested in triplicate and their mean values were used to determine the experimental values of % specific binding versus the concentration of compound. Affinity data are expressed as % inhibition at 10^−5M and 10^−7M concentrations.

α2-GABAA receptor = assay: Ligand-binding assay, radiolabeled flumazenil competition, spinal cord membranes; settings: rat spinal cord membranes, radiolabeled flumazenil 1 nM
Protocol: as §1, §2, §3, §4, §5

SMILES | IC50 (GABAA receptor) | % inhib 10^−5 M, affinity for the α1-subunit of the GABAA receptor (α1-GABAA receptor) | % inhib 10^−7 M, affinity for the α1-subunit of the GABAA receptor (α1-GABAA receptor) | % inhib 10^−5 M, affinity for the α2-subunit of the GABAA receptor (α2-GABAA receptor) | % inhib 10^−7 M, affinity for the α2-subunit of the GABAA receptor (α2-GABAA receptor)
CCCCN(CCCC)C(=O)Cc1c(-c2ccc(Cl)cc2)nc2ccc(C)nn12 [Example 22, N,N-Dibutyl-2-[2-(4-chloro-phenyl)-6-methyl-imidazo[1,2-b]pyridazin-3-yl]-acetamide] | 17.2 nM | 100.0% | 97.6% | 86.6% | 61.2%
CCCCN(CCCC)C(=O)Cc1c(-c2ccc(F)cc2)nc2ccc(C)nn12 [Example 40, N,N-Dibutyl-2-[2-(4-fluoro-phenyl)-6-methyl-imidazo[1,2-b]pyridazin-3-yl]-acetamide] | – | 100.3% | 98.0% | 91.5% | 60.7%
CCCCN(CCCC)C(=O)Cc1c(-c2ccc(F)cc2)nc2ccc(OC)nn12 [Example 42, N,N-Dibutyl-2-[2-(4-fluoro-phenyl)-6-methoxy-imidazo[1,2-b]pyridazin-3-yl]-acetamide] | – | 99.7% | 62.2% | 79.4% | 16.3%
CCCCN(CCCC)C(=O)Cc1c(-c2ccc(OC)cc2)nc2ccc(C)nn12 [Example 72, N,N-Dibutyl-2-[2-(4-methoxy-phenyl)-6-methyl-imidazo[1,2-b]pyridazin-3-yl]-acetamide] | – | 100.4% | 91.5% | 85.6% | 51.7%
CCCCN(CCCC)C(=O)Cc1c(-c2ccc(OC)cc2)nc2ccc(OC)nn12 [Example 77, N,N-Dibutyl-2-[6-methoxy-2-(4-methoxy-phenyl)-imidazo[1,2-b]pyridazin-3-yl]-acetamide] | – | 100.1% | 42.2% | 83.4% | 23.6%
CCCN(CCOC(C)=O)C(=O)Cc1c(-c2ccc(C)cc2)nc2ccc(C)nn12 [Example 80, Acetic acid 2-{[2-(6-methyl-2-p-tolyl-imidazo[1,2-b]pyridazin-3-yl)-acetyl]-propyl-amino}-ethyl ester] | – | 99.7% | 85.2% | 84.3% | 37.0%
Cc1ccc2nc(-c3ccc(Br)cc3)c(CC(=O)NN)n2n1 [Example 100, [2-(4-Bromo-phenyl)-6-methyl-imidazo[1,2-b]pyridazin-3-yl]-acetic acid hydrazide] | – | 99.5% | 62.4% | 73.0% | 2.3%
Cc1ccc2nc(-c3ccc(Cl)cc3)c(CC(=O)NN)n2n1 [Example 102, [2-(4-Chloro-phenyl)-6-methyl-imidazo[1,2-b]pyridazin-3-yl]-acetic acid hydrazide] | – | 99.1% | 66.7% | 77.9% | 13.7%
